# Reference: the supplement of paper PMC8728848
# Some of the results follow.
# Columns and labels:
# Test in all cases: glycan array binding signal (z-score within array); higher = stronger binding
# Details in all cases: glycan notation: IUPAC condensed, linker removed
# Fuc(a1-2)Gal = biological target: Fuc(a1-2)Gal
# In short: (§1)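 Glycan array data were curated from 3228 arrays in the Consortium for Functional Glycomics database and kept only where the protein sequence was available. Glycan names were converted to IUPAC-condensed notation, and columns mapping to the same glycan were averaged. The binding signal is a within-array Z-score, averaged across arrays of the same protein sequence at different concentrations or buffers and across linkers. Negative Z-scores can be read as non-binding.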
# Fuc(a1-2)Gal(b1-3)GalNAc = biological target: Fuc(a1-2)Gal(b1-3)GalNAc
# In short: as §1
# [1] = biological target: Fuc(a1-2)Gal(b1-3)GalNAc(b1-3)Gal
# In short: as §1
# [2] = biological target: Fuc(a1-2)Gal(b1-3)GalNAc(b1-3)Gal(a1-4)Gal(b1-4)Glc
# In short: as §1
# [3] = biological target: Fuc(a1-2)Gal(b1-3)GalNAc(b1-3)Gal(b1-4)Glc
# In short: as §1
# [4] = biological target: Fuc(a1-2)Gal(b1-3)GalNAc(b1-4)[Neu5Ac(a2-3)]Gal(b1-4)Glc
# In short: as §1
# [5] = biological target: Fuc(a1-2)Gal(b1-3)[Fuc(a1-4)]GlcNAc
# In short: as §1
# Fuc(a1-2)Gal(b1-4)Glc = biological target: Fuc(a1-2)Gal(b1-4)Glc
# In short: as §1
# Fuc(a1-2)Gal(b1-4)Glc6S = biological target: Fuc(a1-2)Gal(b1-4)Glc6S
# In short: as §1
# Fuc(a1-2)Gal(b1-4)GlcNAc = biological target: Fuc(a1-2)Gal(b1-4)GlcNAc
# In short: as §1
# [6] = biological target: Fuc(a1-2)Gal(b1-4)GlcNAc(b1-3)Gal(b1-4)GlcNAc
# In short: as §1
# [7] = biological target: Fuc(a1-2)Gal(b1-4)GlcNAc(b1-3)Gal(b1-4)GlcNAc(b1-3)Gal(b1-4)GlcNAc
# In short: as §1
# [8] = biological target: Fuc(a1-2)Gal(b1-4)GlcNAc6S
# In short: as §1
# [9] = biological target: Fuc(a1-2)Gal(b1-4)[Fuc(a1-3)]GalNAc(b1-3)Gal(b1-4)[Fuc(a1-3)]GlcNAc
# In short: as §1
# [10] = biological target: Fuc(a1-2)Gal(b1-4)[Fuc(a1-3)]GalNAc(b1-3)Gal(b1-4)[Fuc(a1-3)]GlcNAc(b1-3)Gal(b1-4)[Fuc(a1-3)]GalNAc
# In short: as §1
# [11] = biological target: Fuc(a1-2)Gal(b1-4)[Fuc(a1-3)]GlcNAc
# In short: as §1
# Fuc(a1-2)Gal6S(b1-4)Glc = biological target: Fuc(a1-2)Gal6S(b1-4)Glc
# In short: as §1
# [12] = biological target: Fuc(a1-2)Gal6S(b1-4)Glc6S
# In short: as §1
# [13] = biological target: Fuc(a1-2)Gal6S(b1-4)GlcNAc
# In short: as §1
# Fuc(a1-2)GlcNAc = biological target: Fuc(a1-2)GlcNAc
# In short: as §1
# Fuc(a1-2)[Gal(a1-3)]Gal = biological target: Fuc(a1-2)[Gal(a1-3)]Gal
# In short: as §1
# [14] = biological target: Fuc(a1-2)[Gal(a1-3)]Gal(b1-3)GlcNAc
# In short: as §1
# [15] = biological target: Fuc(a1-2)[Gal(a1-3)]Gal(b1-4)Glc
# In short: as §1
# [16] = biological target: Fuc(a1-2)[Gal(a1-3)]Gal(b1-4)GlcNAc
# In short: as §1
# [17] = biological target: Fuc(a1-2)[Gal(a1-3)]Gal(b1-4)[Fuc(a1-3)]GlcNAc
# In short: as §1
# [18] = biological target: Fuc(a1-2)[Gal(a1-4)]Gal(b1-4)GalNAc
# In short: as §1
# [19] = biological target: Fuc(a1-2)[GalNAc(a1-3)]Gal
# In short: as §1
# [20] = biological target: Fuc(a1-2)[GalNAc(a1-3)]Gal(b1-3)GlcNAc
# In short: as §1
# [21] = biological target: Fuc(a1-2)[GalNAc(a1-3)]Gal(b1-4)Glc
# In short: as §1
# [22] = biological target: Fuc(a1-2)[GalNAc(a1-3)]Gal(b1-4)GlcNAc
# In short: as §1
# [23] = biological target: Fuc(a1-2)[GalNAc(a1-3)]Gal(b1-4)[Fuc(a1-3)]GlcNAc
# In short: as §1
# [24] = biological target: Fuc(a1-2)[GalNAc(a1-4)]Gal(b1-4)GlcNAc
# In short: as §1
# Fuc(a1-3)GlcNAc = biological target: Fuc(a1-3)GlcNAc
# In short: as §1
# [25] = biological target: Fuc(a1-3)[Gal(b1-4)]Glc6S
# In short: as §1
# [26] = biological target: Fuc(a1-3)[Gal(b1-4)]GlcNAc
# In short: as §1
# [27] = biological target: Fuc(a1-3)[Gal(b1-4)]GlcNAc(b1-3)Gal(b1-3)[Fuc(a1-4)]GlcNAc
# In short: as §1
# [28] = biological target: Fuc(a1-3)[Gal(b1-4)]GlcNAc(b1-4)Gal(b1-4)[Fuc(a1-3)]GlcNAc
# In short: as §1
binder,measurement,setting,value
"STA (Solanum tuberosum), Q9S8M0 (protein) NASPPSPSPLPYPQCGMKKGGGKCIKTGECCSIWGWCGTTNAYCSPGYCQKQCPGPYPEGRCGWQANGKSCPTGTGQCCSNGGWCGTTSDYCASKNCQSQCKLPSPPPPPPPPSPPPPSPPSPPPPSPPPPPPPSPPPPSPPPPSPSPPPPPASPPPPPPALPYPQCGIKKGGGKCIKTGECCSIWGWCGTTNAYCSPGYCQKQCPGPYPEGRCGWQANGKSCPTGTGHCCSNAGWCGTTSDYCAPVNCQAQCNTTTLTSPIKNRMRGIESFMLNVV",glycan array binding signal (z-score),Fuc(a1-2)Gal,-0.587
same,glycan array binding signal (z-score),Fuc(a1-2)Gal(b1-3)GalNAc,-0.582
same,glycan array binding signal (z-score),[1],-0.572
same,glycan array binding signal (z-score),[2],-0.58
same,glycan array binding signal (z-score),[3],-0.595
same,glycan array binding signal (z-score),[4],-0.584
same,glycan array binding signal (z-score),[5],-0.603
same,glycan array binding signal (z-score),Fuc(a1-2)Gal(b1-4)Glc,-0.595
same,glycan array binding signal (z-score),Fuc(a1-2)Gal(b1-4)Glc6S,-0.576
same,glycan array binding signal (z-score),Fuc(a1-2)Gal(b1-4)GlcNAc,2.12
same,glycan array binding signal (z-score),[6],2.12
same,glycan array binding signal (z-score),[7],1.72
same,glycan array binding signal (z-score),[8],1.6
same,glycan array binding signal (z-score),[9],-0.593
same,glycan array binding signal (z-score),[10],-0.583
same,glycan array binding signal (z-score),[11],-0.573
same,glycan array binding signal (z-score),Fuc(a1-2)Gal6S(b1-4)Glc,-0.584
same,glycan array binding signal (z-score),[12],-0.53
same,glycan array binding signal (z-score),[13],-0.558
same,glycan array binding signal (z-score),Fuc(a1-2)GlcNAc,-0.595
same,glycan array binding signal (z-score),Fuc(a1-2)[Gal(a1-3)]Gal,-0.597
same,glycan array binding signal (z-score),[14],-0.588
same,glycan array binding signal (z-score),[15],-0.597
same,glycan array binding signal (z-score),[16],1.58
same,glycan array binding signal (z-score),[17],-0.593
same,glycan array binding signal (z-score),[18],1.82
same,glycan array binding signal (z-score),[19],-0.588
same,glycan array binding signal (z-score),[20],-0.59
same,glycan array binding signal (z-score),[21],-0.586
same,glycan array binding signal (z-score),[22],1.81
same,glycan array binding signal (z-score),[23],-0.574
same,glycan array binding signal (z-score),[24],1.89
same,glycan array binding signal (z-score),Fuc(a1-3)GlcNAc,-0.568
same,glycan array binding signal (z-score),[25],-0.562
same,glycan array binding signal (z-score),[26],-0.587
same,glycan array binding signal (z-score),[27],-0.582
same,glycan array binding signal (z-score),[28],-0.582
